Data as given in the supplement of paper PMC3334620.
The full ranking holds about 33,000 sequences; the median of “E-score (-0.5 to 0.5)” is about -0.013, and the highest 2% start at about 0.3. The list shows a part of the results.

These sequences were tested against T1, Msn1 (UniProt P22148) (assay: PBM E-score (8-mer binding enrichment) (E-score (-0.5 to 0.5)); higher = stronger / more preferred TF binding; most listed sequences are background and not binding sites). Details: protein concentration: 200 nM; construct: GST-full length.
T1 sequence: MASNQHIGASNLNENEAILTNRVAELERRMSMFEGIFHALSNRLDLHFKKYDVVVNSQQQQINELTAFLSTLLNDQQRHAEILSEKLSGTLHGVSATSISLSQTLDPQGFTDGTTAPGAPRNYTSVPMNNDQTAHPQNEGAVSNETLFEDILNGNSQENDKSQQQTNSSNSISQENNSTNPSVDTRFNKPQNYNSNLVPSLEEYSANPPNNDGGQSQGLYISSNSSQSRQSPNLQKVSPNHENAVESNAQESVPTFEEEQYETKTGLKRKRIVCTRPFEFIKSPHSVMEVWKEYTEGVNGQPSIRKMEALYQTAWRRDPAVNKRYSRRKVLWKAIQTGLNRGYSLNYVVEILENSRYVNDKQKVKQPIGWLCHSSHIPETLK
In short: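 Yeast transcription factors, full-length or as DNA-binding domains, were expressed with a GST tag using PURExpress in vitro transcription/translation. At about 100-200 nM they were applied to universal all-10-mer Agilent arrays, double-stranded by primer extension on fresh or once-stripped slides. Fluorescent anti-GST detected bound protein, and masliner normalised the scans. E-scores for ungapped eight-base words, pooled with reverse complements, came from the Universal PBM Analysis Suite.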

Row | Sequence | PBM E-score
1 | CAGAACAA | 0.296
2 | CCTCGAGC | -0.0308
3 | AGCGAACT | -0.0798
4 | GACATATC | 0.451
5 | CAACATCG | 0.0789
6 | ACGGGTAT | -0.0412
7 | GGCAACTA | 0.0447
8 | ACATAGGG | -0.00128
9 | GCTTTACA | 0.0483
10 | GATAAACA | 0.0551
11 | CGGATCAG | -0.0123
12 | CAACGTTG | 0.128
13 | GGCGTCCA | -0.0363
14 | AATTCGGA | 0.151
15 | CTCGTTAA | -0.00553
16 | ACGTTTAA | 0.0902
17 | ATCTTTGC | 0.0934
18 | AGTCAAAC | 0.0149
19 | GCAAACAA | 0.0522
20 | CGAGGCTA | -0.117
21 | CAAGTAAC | 0.0554
22 | AACGAGTT | -0.07
23 | CAACTAAA | 0.107
24 | GCACTCTA | -0.0404
25 | ATGTATGA | 0.186

Row | Sequence | PBM E-score
26 | CCCATTGA | -0.248
27 | GCCATCAC | -0.175
28 | AACTAGTA | 0.00606
29 | AGAATACT | 0.0795
30 | AAGTGTCC | 0.366
31 | CCCAGAAG | -0.159
32 | CAACCAGA | 0.102
33 | AGCCTTGG | -0.0975
34 | ACGATCAG | -0.0455
35 | TGAAAGCA | 0.139
36 | CTGAGCCA | 0.0268
37 | AACATCTC | 0.123
38 | GTAACCTA | -0.1
39 | GCTCCAAC | -0.111
40 | AAACTTTG | 0.102
41 | AACGAAAC | -0.0147
42 | GGGCCCTA | -0.196
43 | GGCGTCAC | -0.195
44 | CCTAAAAC | -0.0537
45 | ATCGCCAC | -0.07
46 | AGGATTAC | -0.243
47 | CTTCCACA | 0.00836
48 | TACTCATA | -0.0181
49 | ATGTTAAG | 0.091
50 | GGTCTGGA | -0.125

Row | Sequence | PBM E-score
51 | ACGAGCTA | -0.192
52 | GAAATCCC | 0.0541
53 | CTTGATAC | 0.23
54 | GGACACCA | 0.255
55 | GAGCACTC | -0.0598
56 | CAGGCGCC | -0.0891
57 | GCCATAAC | -0.0124
58 | AAGCGCAC | -0.17
59 | AGGGTTGG | -0.02
60 | CAATTTTA | 0.211
61 | TACCGATA | 0.0569
62 | AATTGTCT | 0.406
63 | GCCTCAGA | -0.122
64 | CGAACTCC | 0.226
65 | CAACCCCG | -0.101
66 | AACCCAGC | -0.188
67 | GCGGACAC | 0.162
68 | GCCTATAA | 0.0368
69 | AGAATTTG | 0.158
70 | GTGTCAAC | -0.139
71 | AAAGCTGG | -0.045
72 | ATGCAACA | -0.101
73 | CACAGTCG | -0.072
74 | TATATCCA | 0.0098
75 | AACCAGGG | -0.183

Row | Sequence | PBM E-score
76 | GTAGGAAA | -0.0401
77 | ATATATAC | 0.252
78 | CATTCAAA | 0.0752
79 | AGCTCCCG | -0.253
80 | GCTCCGTA | -0.0119
81 | CAACCCGA | 0.0882
82 | ATTAATTA | 0.0938
83 | AGGAGTGA | -0.125
84 | AAACTACC | 0.0926
85 | CGTTTCGA | -0.0731
86 | ACGTGGCC | -0.156
87 | AAACACGG | 0.0842
88 | ACGCGAAG | 0.0703
89 | AGAGGGGG | -0.421
90 | ACATGGCA | 0.123
91 | ACATTGTG | 0.207
92 | AACCCCAT | -0.0934
93 | CAAGCACG | -0.0529
94 | GACTCCCC | -0.207
95 | GCGGCGTA | -0.174
96 | AACCCCAC | -0.257
97 | GCGACAGC | -0.0585
98 | AAGATGCT | -0.0645
99 | AAGAATGA | 0.119
100 | CCCGTCCG | -0.274

Row | Sequence | PBM E-score
101 | ACTCCAGC | -0.217
102 | CCAATCCA | -0.251
103 | AACCTTGT | -0.0697
104 | CAGGGGTA | -0.192
105 | CGCTAGCG | -0.19
106 | ACCACTAG | -0.179
107 | ACCGTCAT | -0.00651
108 | CGGCCCAG | -0.186
109 | CCTCGACG | -0.0823
110 | TCTTCCCA | -0.316
111 | CGTAGGGC | -0.199
112 | AATTGACA | 0.139
113 | ACGCCGCA | -0.101
114 | TCCCTCCA | -0.169
115 | CAGCGGTA | 0.0912
116 | CATAGAAG | 0.0331
117 | AGCCTAGA | -0.217
118 | ATTGTCAA | 0.12
119 | AACTAACC | 0.0819
120 | ACCTAAGT | 0.117
121 | CGAGAGCC | -0.197
122 | CAGTTACC | -0.0176
123 | ACGGGACT | 0.0899
124 | GATAAATC | -0.0458
125 | AAAAGCGC | -0.00424

Row | Sequence | PBM E-score
126 | GAAATGGC | -0.165
127 | TCATTCCA | -0.0404
128 | GTGCCGCA | 0.149
129 | CAATGGCG | -0.0489
130 | TCGAGGCA | 0.0877
131 | AGCTCGAA | 0.0691
132 | GCCCACAA | -0.0701
133 | ACGGCACC | -0.185
134 | CATTCCTA | 0.112
135 | ACTCCTTA | -0.159
136 | TCGAATCA | -0.0887
137 | AAGTATAA | 0.0678
138 | CAGCCGGA | 0.186
139 | AATACTGC | -0.0153
140 | CGCTGCAC | -0.0856
141 | GCCGTAAC | -0.116
142 | CTGTTAAA | -0.0535
143 | AAATCGAG | 0.0826
144 | ACCAGGGG | -0.383
145 | GGTTTGTA | 0.0228
146 | ACTAATAC | 0.174
147 | CGGCCTTC | 0.00796
148 | CCATGTAC | 0.216
149 | GACCCACA | 0.0689
150 | ACAATTCG | 0.265

Row | Sequence | PBM E-score
151 | AGATGTTC | 0.0457
152 | CGGCACAA | -0.0522
153 | AAATCCGC | -0.0186
154 | ATACGAAA | 0.215
155 | CCGCCCGA | -0.0838
156 | CAAGCCAC | -0.208
157 | AGACCCTA | -0.246
158 | AAATACGC | 0.112
159 | AAGTCTTC | -0.047
160 | ATTCAGCG | -0.0874
161 | CATTTTTC | 0.248
162 | AACAATAC | 0.158
163 | ATTACAAA | 0.302
164 | TCACCACA | 0.0982
165 | CAGGTATC | -0.0118
166 | CAGACAGC | -0.0406
167 | GTGCGTAA | 0.0253
168 | ACAAGAGC | 0.0213
169 | ATGTATTG | 0.056
170 | AATTCCTG | 0.0411
171 | CTTCGCAC | 0.0006
172 | TGGAACAA | 0.183
173 | AATGCGCA | 0.255
174 | AGTTACGG | -0.182
175 | GTCTCATA | 0.204

Row | Sequence | PBM E-score
176 | ATGAACCC | 0.0567
177 | CGGGAGCA | -0.083
178 | CACTTTGC | 0.0317
179 | GGTGCAGA | -0.22
180 | GCAGCAAC | -0.0666
181 | TATGTCCA | 0.465
182 | CTCCCTGA | -0.226
183 | AAGCTAAC | 0.0252
184 | ATATTGAG | 0.0703
185 | AATTGCCT | 0.0989
186 | CCGTCTTC | -0.0391
187 | AGACCCAT | -0.268
188 | ACGGAGAA | -0.0172
189 | CACCAAAG | 0.0692
190 | CTACCTGA | -0.185
191 | GATGCAGC | -0.00464
192 | CAATTTCC | 0.0903
193 | ATACATCC | -0.0771
194 | CAACTAGG | 0.0252
195 | AGCGCTGG | -0.206
196 | AACTTCCA | -0.0459
197 | AATCCATT | 0.0469
198 | AGGCCGAT | 0.113
199 | CACCACCC | -0.144
200 | CAACCGCA | 0.0316

Row | Sequence | PBM E-score
201 | ATGATCTC | 0.00785
202 | CGTACTTA | 0.142
203 | GACCGCCA | -0.155
204 | AACTTGGG | -0.108
205 | CGTGAGTA | -0.0497
206 | AAGCTCGC | 0.0933
207 | GAGAAGGC | -0.316
208 | AAATAGTC | 0.107
209 | GGAATCTA | -0.0568
210 | CCATGGGG | -0.149
211 | CACTCCCC | -0.105
212 | CGAGGTGA | 0.0696
213 | CACTCTGG | -0.148
214 | AGCCAATA | -0.113
215 | AATTGGGA | 0.148
216 | AACCTGTG | 0.0255
217 | TAACGCTA | -0.161
218 | ATGGCTTG | -0.0769
219 | ATTTACTG | 0.0688
